PubChem BioAssay AID743279 (National Center for Advancing Translational Sciences (NCATS), 2014)
About 17,000 (4.7%) of roughly 360,000 compounds were called active. The inconclusive results got no clear call from the source; some entries with a clear call stand among them for comparison. Cut-off read from the data, not from the text of the source: active = activity change below about -50%; inconclusive = mostly about -30% to -49%; inactive = weaker than that.

Experiment: qHTS for Inhibitors of Inflammasome Signaling: IL-1-beta AlphaLISA Primary Screen
Conditions: THP-1 LPS/ATP IL-1B secretion, 16 h; at 57.5 µM, hits give low values
How it was run: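 THP-1 cells pretreated 1 hr with compounds (up to 57.5 uM final), then stimulated with LPS (250 ng/mL final) plus ATP (1.25 mM final); secreted IL-1B measured by AlphaLISA after 16 hr, decreased signal indicating inhibition.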
% is set by controls: 0 for no effect and ±100 for the full control effect.

Structure (SMILES) | activity change
Cc1cc(-c2nn(-c3ccccc3F)cc2CN2CCN(c3ccccn3)CC2)c(C)s1 | inconclusive: -31.2%
Cc1cc(C)nc(S/C=C/C(=O)c2ccccc2)n1 | active: -104%
COc1cncc(-c2cnc3sc(NCCc4ccccn4)nn23)c1 | inconclusive: -34.6%
CCc1sc(C(=O)N2CCN(C(=O)c3ccccc3)CC2)cc1C | inconclusive: -47.3%
CN(Cc1cccs1)c1nc(-c2cccnc2)nc2ccccc12 | active: -91.7%
Cn1nccc1C(=O)Nc1cc(Cl)ccc1Cl | inconclusive: -39.1%
COc1ccc2oc(C(=O)N3CCN(S(=O)(=O)c4cccc([N+](=O)[O-])c4)CC3)c(C)c2c1 | inactive: -3.35%
Nc1ccc(C#Cc2ccc3c(=O)c4ccccc4oc3c2)cc1 | inconclusive: -40.2%
CCOC(=O)c1cnn(CCOC(=O)C2CC2)c1NC(=O)C1CC1 | inactive: 12.9%
Cc1csc(NC(=O)CCC(=O)N(CC(=O)NC2CCCC2)Cc2ccccc2)n1 | inactive: -8.08%
Cc1ccc(NC(=O)NCC2CCN(Cc3cccc(Cl)c3)CC2)c(Cl)c1 | active: -51.4%
CC(=O)c1ccc(N2CCN(CC(O)COC(c3ccccc3)c3ccccc3)CC2)cc1 (stereo not given) | inconclusive: -31.7%
Cc1ccc(C(=O)N(CCN(C)C)CC2CCCN(Cc3ccccc3F)C2)cc1C (stereo not given) | inconclusive: -46.9%
Cc1ccc2cc(CCNC(=O)c3ccc(S(=O)(=O)N4CCOCC4)cc3)c(=O)[nH]c2c1 | inconclusive: -31.5%
COc1ccc(NC(=O)CSc2nc3ccccc3c3nc4ccccc4n23)cc1 | inactive: 17%
COC(=O)c1c(NC(=O)CSc2nnc(-c3ccco3)n2C)sc(C)c1C | inconclusive: -31.8%
Cc1cccc(NC(=O)CN2CCN(C(=O)c3ccc(OCc4cn5ccccc5n4)cc3)CC2)c1C | inconclusive: -31.8%
CCOc1cc(/C=N/O)cc(Br)c1OCC(=O)NCc1ccccc1 | inconclusive: -36.3%
CC(C)OP(=O)(OC(C)C)/C(C=O)=N\Nc1ccc([N+](=O)[O-])cc1 | active: -90.4%
Cc1ccc2nc(C)c3c(c2c1)COC3 | inconclusive: -36.1%
CC1(C)Cc2nc3sc4c(=O)[nH]cnc4c3cc2CS1 | inconclusive: -31.9%
CCc1cc(=O)oc2c(C)c(OCC(=O)NCCCN3CCCC3=O)ccc12 | inconclusive: -36.2%
N#Cc1ccc2[nH]cc(C3c4cc(F)ccc4C=C(c4ccsc4)N3c3ccc(C#CCCO)cc3)c2c1 (stereo not given) | inconclusive: -42.3%
O=C(Nc1ccc(Br)cc1F)C1CCCO1 (stereo not given) | inconclusive: -30.8%
O=C(NCCN1C(=O)S/C(=C\c2ccc(Cl)c([N+](=O)[O-])c2)C1=O)C1=COCCO1 | active: -103%
CSCCC(NC(=O)c1ccco1)C(=O)OCc1cc([N+](=O)[O-])cc2c1OCOC2 (stereo not given) | inactive: 32.6%
CCCCCCCN1CCN=C1Nc1ccccc1 | inconclusive: -33.5%
O=C1CC2(CCN(C(=O)c3cccc(Br)c3)CC2)Oc2ccccc21 | inconclusive: -33.9%

Structure (SMILES) | activity change
CC(C)CC(=O)NC(=S)Nc1ccc(N2CCN(C(=O)c3cccs3)CC2)cc1 | active: -57.7%
NC(N)=Nc1nc(-c2ccccc2)c2cc(F)ccc2n1 | active: -89.9%
Cc1ccn2c(NC(=O)C(C)(C)Oc3ccc(Cl)cc3)c(-c3cccs3)nc2c1 | inconclusive: -48.6%
COc1ccc(C(=O)N/N=C/c2ccc(OC)c(CN3CCCc4ccccc43)c2)cc1 | inconclusive: -40.7%
N#C/C(=C/c1ccc(O)cc1)C(=O)NCc1ccc(Cl)cc1 | active: -65.3%
O=C(Nc1ccc(Cl)c(S(=O)(=O)Nc2ccccc2Cl)c1)c1cccs1 | active: -93.1%
CCC1(C)COC2(OC1)C(=O)Nc1ccccc12 (stereo not given) | active: -51.4%
COc1ccc(NC(=O)c2cc3ccc(O)cc3o/c2=N\O)cc1 | inconclusive: -45.9%
Cc1cccc(-c2noc(CCC(=O)Nc3ccccc3)n2)c1 | inactive: 12%
O=S(=O)(c1ccc(C2CCCCC2)cc1)N1CCCC1 | active: -64.7%
COc1cc(-c2nc3n(n2)C(c2ccc(F)cc2)C2=C(CCCC2=O)N3)cc(OC)c1OC (stereo not given) | inconclusive: -37.4%
COc1ccc(C(CNC(=O)c2ccc(Cl)c(NC(=O)c3cccs3)c2)N2CCCC2)cc1 (stereo not given) | inconclusive: -31.8%
COc1ccc(-c2nnc(SCC(=O)Nc3cc(C)on3)n2N)cc1OC | inactive: 25.2%
COC(=O)c1nc(N)sc1-c1ccc(Cl)c(Cl)c1 | inconclusive: -34.6%
Cc1cn([C@H]2C[C@H](O)[C@@H](CNCc3ccccc3OCCCN3CCOCC3)O2)c(=O)[nH]c1=O | inconclusive: -33.1%
COc1ccc(CNC(=O)C2COc3ccccc3O2)c(OC)c1 (stereo not given) | inconclusive: -38.4%
COc1ccc(S(=O)(=O)N2CCc3ccccc32)cc1OC | inconclusive: -33.4%
O=C(c1sc2cc([N+](=O)[O-])ccc2c1Cl)N1CCCCC1 | inconclusive: -39.2%
Cc1cccc(OCCOC(=O)CN2C(=O)NC3(CCCC3)C2=O)c1 | inconclusive: -33.2%
CC(C)CC(N)c1csc(NC(=O)Nc2ccccc2Cc2ccccc2)n1 (stereo not given) | inconclusive: -35%
Cc1occc1-c1nnc(SCC(=O)Nc2ccccn2)o1 | inactive: -1.07%
O=C(COc1ccc(C(=O)c2ccc(F)cc2)cc1)Nc1cccc(S(=O)(=O)N2CCOCC2)c1 | inconclusive: -38.7%
COC(=O)C(NC(=O)c1ccc(OC)cc1)(Nc1ncc(S(=O)(=O)c2ccc([N+](=O)[O-])cc2)s1)C(F)(F)F (stereo not given) | active: -99.1%
CCOc1ccc(OCCNC(=O)c2cc(C3CC3)nc3c2cnn3C(C)C)cc1 | inconclusive: -31.6%
Cc1nn(CC(=O)c2cccc(Cl)c2)c(C)c1[N+](=O)[O-] | inconclusive: -40.5%
Cc1cccc(CCN(CC(=O)NCc2ccc(F)cc2)C(=O)c2csnn2)c1 | inconclusive: -39.9%
O=C(COc1ccccc1F)OCC(=O)c1ccc([N+](=O)[O-])cc1 | inconclusive: -30.4%
